Data taken from the antibiotic and cytotoxicity screens of Wong et al. (2023).
The list shows a part of the results.

How the values were obtained:
[1] = tested on: HSkMC (human skeletal muscle cells); test: cytotoxicity call (relative viability < 0.9); conditions: 10 µM
[2] = tested on: HepG2; test: cytotoxicity call (relative viability < 0.9); conditions: 10 µM
[3] = tested on: S. aureus RN4220; test: growth inhibition call (relative growth <= 0.2); conditions: 50 µM

Structure (SMILES) | cytotoxicity call [1] | cytotoxicity call [2] | growth inhibition call [3]
COCCN1CCN(C)C2(CCN(C(=O)c3csnn3)CC2)C1=O | inactive | inactive | inactive
CS(=O)(=O)N1[C@@H]2Cn3c(ccc(-c4ccc(F)cc4)c3=O)[C@H]1[C@@H](C(=O)N1CCOCC1)[C@@H]2CO | inactive | inactive | inactive
O=C(O)C12CC(C1)C2 | inactive | inactive | inactive
COc1cccc(S(=O)(=O)N(C)C[C@@H]2Oc3ncc(-c4cccc(F)c4)cc3C(=O)N([C@H](C)CO)C[C@@H]2C)c1 | inactive | inactive | inactive
COc1ccc(S(=O)(=O)Nc2ccc3c(c2)C(=O)N([C@H](C)CO)C[C@@H](C)[C@H](CN(C)C(=O)Nc2ccc4c(c2)OCO4)OCCCC[C@H](C)O3)cc1 | inactive | inactive | inactive
C[C@@H]1CCCCO[C@H](CN(C)C(=O)NC2CCCCC2)[C@@H](C)CN([C@H](C)CO)C(=O)c2cc(NC(=O)Nc3ccc(F)cc3)ccc2O1 | inactive | inactive | inactive
COc1ccc(S(=O)(=O)Nc2ccc3c(c2)C(=O)N([C@H](C)CO)C[C@H](C)[C@@H](CN(C)S(=O)(=O)c2cn(C)cn2)OCCCC[C@H](C)O3)cc1 | inactive | inactive | inactive
C[C@@H]1CN([C@@H](C)CO)C(=O)c2cc(NC(=O)CCC(F)(F)F)ccc2O[C@H]1CN(C)Cc1ccc(-c2ccccc2)cc1 | inactive | active | inactive
C[C@@H]1CN([C@H](C)CO)C(=O)Cc2cc(NS(=O)(=O)c3cn(C)cn3)ccc2O[C@@H]1CN(C)S(C)(=O)=O | inactive | inactive | inactive
COc1ccc(CN(C)C[C@@H]2OCCCC[C@H](C)Oc3ccc(NC(=O)c4ccccc4)cc3C(=O)N([C@H](C)CO)C[C@H]2C)cc1 | inactive | inactive | inactive
O=C(C[C@@H]1CC=CCC[C@@H](Cc2ccc(F)cc2)C(=O)OC[C@H](Cc2ccccc2)NC1=O)NCCO | inactive | inactive | inactive
Cc1ccc(S(=O)(=O)N(C)C[C@H]2Oc3ccc(NS(=O)(=O)c4ccc(F)cc4)cc3C(=O)N([C@@H](C)CO)C[C@@H]2C)cc1 | inactive | inactive | inactive
Cc1noc(C)c1NC(=O)N(C)C[C@@H]1Oc2c(NC(=O)C3CCOCC3)cccc2C(=O)N([C@H](C)CO)C[C@@H]1C | inactive | inactive | inactive
COc1ccccc1CN1C(=O)c2ccccc2[C@@]2(Cc3ccccc3N(CC(F)(F)F)C2=O)[C@@H]1c1ccc(CO)cc1 | inactive | inactive | inactive
C[C@@H]1CN([C@H](C)CO)C(=O)c2cccc(NC(=O)c3ccncc3)c2O[C@H]1CN(C)S(=O)(=O)c1ccccc1 | inactive | inactive | inactive
CCN(CC)S(=O)(=O)c1ccc(C(=O)O)cc1 | inactive | inactive | inactive
C=CCOC(=O)[C@H]1[C@@H]2C(=O)O[C@@H](c3ccccc3)[C@@H](c3ccccc3)N2[C@@H](c2ccc(OCCOC(=O)[C@H]3C[C@H]4C(=O)N[C@@H](CCCCNC(C)=O)C(=O)N4[C@H]3c3cccc(OCCO)c3)cc2)[C@]12C(=O)Nc1ccc(I)cc12 | inactive | inactive | inactive
COCC#Cc1cnc2c(c1)C(=O)N([C@H](C)CO)C[C@H](C)[C@@H](CN(C)C(=O)CCN1CCCCC1)O2 | inactive | inactive | inactive
COc1ccc(NC(=O)Nc2cccc3c2O[C@H](CN(C)Cc2ccc(Cl)c(Cl)c2)[C@@H](C)CN([C@H](C)CO)C3=O)cc1 | inactive | inactive | inactive
C[C@@H]1CN([C@H](C)CO)C(=O)c2cc(NC(=O)CCC(F)(F)F)ccc2O[C@@H](C)CCCCO[C@H]1CN(C)C(=O)Cc1ccccc1 | inactive | inactive | inactive
C[C@@H]1CCCCO[C@H](CN(C)C(=O)CCC(F)(F)F)[C@H](C)CN([C@@H](C)CO)C(=O)c2cc(NC(=O)NC3CCCCC3)ccc2O1 | inactive | inactive | inactive
C[C@@H]1CN([C@H](C)CO)C(=O)Cc2cc(NC(=O)Nc3ccccc3)ccc2O[C@@H]1CN(C)Cc1ccc(C(=O)Nc2ccccc2N)cc1 | inactive | active | inactive
C[C@@H](NC(=O)C[C@H]1CC[C@@H](NC(=O)CN2CCOCC2)[C@H](CO)O1)c1ccccc1 | inactive | inactive | inactive
Cc1ccc(S(=O)(=O)Nc2ccc3c(c2)C(=O)N([C@@H](C)CO)C[C@H](C)[C@@H](CN(C)C(=O)Cc2ccccc2)OCCCC[C@H](C)O3)cc1 | inactive | inactive | inactive
